In patent US8969004B2, “Detection of immobilized nucleic acid” (Life Technologies Corporation, priority 2004, dated 2015):

System: thymidine kinase (TK) locus in L5178Y mouse lymphoma cells
Experiment: L5178Y TK+/− Mouse Lymphoma Forward Mutation Screen
Excerpt: This assay evaluated the test compounds for their ability induce significant mutagenic activity at the thymidine kinase (TK) locus in L5178Y mouse lymphoma cells as assayed by colony growth in the presence and absence of S9, an exogenous metabolic activation system of mammalian microsomal enzymes derived from Acrolor-induced rat liver and is based on the assay reported by (Clive and Spector, 31 Mutation Research (1975) 17-29; Clive et al. 59 Mutation Research (1979) 61-108; Amacher et al Mutation Research 72 (1980) 447-474; Clive et al. Mutation Research 189 (1987) 143-156). The cell cultures were scored for both cytotoxicity and increases in the mutant frequency wherein a positive result was based on a frequency that was at least twice the average mutant frequency of the concurrent vehicle control (DMSO). The mouse lymphoma cells used for this assay were heterozygous at the TK locus and may undergo a single step forward mutation to the TK^−/− genotype in which little or no TK activity remains. These mutants are viable in normal cell culture medium but these mutants are resistant to the thymidine analog 5-trifluorothymidine (TFT) because they cannot incorporate the toxic analog of thymidine into DNA. Thus, cells that grow to form colonies in the presence of TFT are therefore assumed to have mutated, either spontaneously or by the test compounds. The results of this assay are not definitive but rather an indicator that a test compound has mutagenic properties, or not.
The mouse lymphoma cells were cultured in RPMI 1640 supplemented with horse serum (10% by volume), Pluronic F68, L-glutamine, sodium pyruvate, penicillin and streptomycin (Amacher et al Mutation Research 72 (1980) 447-474; Clive and Spector, Mutation Research 31 (1975) 17-29). Treatment medium was Fisher's medium with the same medium supplements as used for the culture medium except that the horse serum was reduced to 5% by volume. Cloning medium was RPMI 1640 with up to 20% horse serum, without Pluronic F68 and with the addition of 0.24% BBL agar to achieve a semisolid state. Selection medium was cloning medium containing 3 μg/ml of TFT (Clive et al. Mutation Research 189 (1987) 143-156).
The positive controls were Methyl methanesulfonate (MMS) and Methylcholanthrene (MCA) to be used without and with the S9 activation, respectively. MMS is a direct acting mutagen that is highly mutagenic to L5178Y TK^+/− cells and was used at a concentration of 13 μg/mL. MCA requires metabolic activation by microsomal enzymes to become mutagenic to L5178Y TK^+/− cells, S9, and was used at a concentration of 2 and/or 4 μg/mL. The test compounds, ethidium bromide, thiazole orange and Compound 1, were assayed at concentrations of 0.00625 to 4.93 μg/mL.
The cells were pelleted and resuspended in treatment medium containing controls or test compounds, with and without S9. The tubes were placed in an orbital shaker incubator at 35-38° C. and rotated at 70±10 orbitals per minute. After a four-hour exposure period the cells were washed twice, resuspended in 10 mL of culture medium and returned to the orbital shaker and the cells were allowed to grow for two days for mutant recovery. Cell densities less than approximately 3×10^5 cells/mL after day 2 were no considered for mutant selection. The mutants were recovered by plating a total of 3×10^6 cells in selection medium in soft agar. The dishes were incubated for 10 to 14 days at approximately 37° C. with about 5% CO2/95% humidified air.
The mutant frequency was calculated as the ratio of the total number of mutant colonies found in each mutant selection dishes to the total number of cells seeded, adjusted by the absolute selection cloning efficiency. The cytotoxicity was based on the relative suspension growth of cells over the 2-day expression period multiplied by the relative cloning efficiency at the time of selection resulting in a relative total growth (RTG) number.

SMILES: CCC[n+]1ccc(/C=C2\Sc3ccccc3N2C)c2ccccc21 [Compound 1]
- Mutant Frequency (×10^−6 Units) (mouse, 4 h, 0.125 μg/mL): 55.2 ×10^−6 Units
- RTG % (relative total growth) (mouse, 4 h, 0.125 μg/mL): 80.3%
- Mutant Frequency (×10^−6 Units) (mouse, 4 h, 0.25 μg/mL): 67.3 ×10^−6 Units
- RTG % (relative total growth) (mouse, 4 h, 0.25 μg/mL): 26.5%
- Mutant Frequency (×10^−6 Units) (mouse, 4 h, 1.24 μg/mL): 70.6 ×10^−6 Units
- RTG % (relative total growth) (mouse, 4 h, 1.24 μg/mL): 65.1%
- Mutant Frequency (×10^−6 Units) (mouse, 4 h, 2.47 μg/mL): 86.7 ×10^−6 Units
- RTG % (relative total growth) (mouse, 4 h, 2.47 μg/mL): 47.1%
- Mutant Frequency (×10^−6 Units) (mouse, 4 h, 4.93 μg/mL): 114.5 ×10^−6 Units
- RTG % (relative total growth) (mouse, 4 h, 4.93 μg/mL): 7.6%

SMILES: CC[n+]1c(-c2ccccc2)c2cc(N)ccc2c2ccc(N)cc21 [Ethidium bromide, ethidium bromide]
- Mutant Frequency (×10^−6 Units) (With S9, 2.47 μg/mL): 73.7 ×10^−6 Units
- RTG % (relative total growth) (With S9, 2.47 μg/mL): 37.1%
- Mutant Frequency (×10^−6 Units) (With S9, 4.93 μg/mL): 93.6 ×10^−6 Units
- RTG % (relative total growth) (With S9, 4.93 μg/mL): 23.1%
- Mutant Frequency (×10^−6 Units) (Without S9, 1.24 μg/mL): 59.3 ×10^−6 Units
- RTG % (relative total growth) (Without S9, 1.24 μg/mL): 46.3%
- Mutant Frequency (×10^−6 Units) (Without S9, 2.47 μg/mL): 67.6 ×10^−6 Units
- RTG % (relative total growth) (Without S9, 2.47 μg/mL): 33.7%
- Mutant Frequency (×10^−6 Units) (Without S9, 4.93 μg/mL): 94.2 ×10^−6 Units
- RTG % (relative total growth) (Without S9, 4.93 μg/mL): 22.7%
- Mutant Frequency (×10^−6 Units) (Without S9, .620 μg/mL): 64.3 ×10^−6 Units
- RTG % (relative total growth) (Without S9, .620 μg/mL): 53.6%
- Forward Mutation Test, L5178YTK+/− mouse lymphoma cells: result (with and without S9): negative

SMILES: Cc1ccc2cc3c(ccc4ccccc43)c3c2c1CC3 [MCA, Methylcholanthrene]
- Mutant Frequency (×10^−6 Units) (With S9, 2 μg/mL): 446.4 ×10^−6 Units
- RTG % (relative total growth) (With S9, 2 μg/mL): 35.0%
- Mutant Frequency (×10^−6 Units) (With S9, 4 μg/mL): 478.4 ×10^−6 Units
- RTG % (relative total growth) (With S9, 4 μg/mL): 17.1%

SMILES: CN1/C(=C/c2cc[n+](C)c3ccccc23)Sc2ccccc21 [Thiazole orange, thiazole orange]
- Forward Mutation Test, L5178YTK+/− mouse lymphoma cells: result: negative
- Mutant Frequency (×10^−6 Units) (mouse, 4 h, 0.1 μg/mL): 53.0 ×10^−6 Units
- RTG % (relative total growth) (mouse, 4 h, 0.1 μg/mL): 60.9%
- Mutant Frequency (×10^−6 Units) (mouse, 4 h, 0.2 μg/mL): 58.8 ×10^−6 Units
- RTG % (relative total growth) (mouse, 4 h, 0.2 μg/mL): 23.4%
- Mutant Frequency (×10^−6 Units) (mouse, 4 h, 4.93 μg/mL): 77.4 ×10^−6 Units
- RTG % (relative total growth) (mouse, 4 h, 4.93 μg/mL): 90.4%
- Mutant Frequency (×10^−6 Units) (mouse, 4 h, 9.85 μg/mL): 78.0 ×10^−6 Units
- RTG % (relative total growth) (mouse, 4 h, 9.85 μg/mL): 22.6%

Read-outs that look alike come from different tables or passages of the source.
